Test results published in the supplement of paper PMC12217912.
Some of the results follow. The full chains were built here from the parent and the listed change. Inactive controls read about 0.05.

B1: TEV protease; numbered along this chain (parent)
chain: MGESLFKGPRDYNPISSSICHLTNESDGHTTSLYGIGFGPFIITNKHLFRRNNGTLVVQSLHGVFKVKDTTTLQQHLVDGRDMIIIRMPKDFPPFPQKLKFREPQREERICLVTTNFQTKSMSSMVSDTSCTFPSGDGIFWKHWIQTKDGQCGSPLVSTRDGFIVGIHSASNFTNTNNYFTSVPKNFMELLTNQEAQQWVSGWRLNADSVLWGGHKVFMVKPEEPFQPVKEATQL

Variants of: B1
Experiment: raw area under fraction-flipped curve 0-4 h after induction (AUC4h, not background-subtracted), DNA-recorder readout of cleavage of the substrate (dimensionless); higher = more cleavage of the substrate by the protease variant
Conditions: temperature: 34 °C; time window: 0-4 h after rhamnose induction
Procedure: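 In vivo DNA recorder in E. coli TOP10(DE3) ΔrhaA at 34 °C. Each TEVp single-site mutant (parent TEVp 0) is paired with a single-site variant of the 7-mer TEVs (canonical ENLYFQ|S). The substrate sits between flexible linkers in a Bxb1-sfGFP-TEVs-SsrA fusion, so cleavage stabilises Bxb1 and speeds flipping of a recombination array, read by NGS. The value is the raw area under the fraction-flipped curve over 0-4 h after rhamnose induction (AUC4h), with ≥20 reads per time point. It is not background-subtracted; inactive controls average about 0.047.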
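Also: Bxb1 expression induced with 0.2% (w/v) L-rhamnose at OD600 near 0.5, cultures sampled hourly, flipped fraction per protease–substrate barcode pair counted by paired-end Illumina sequencing.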

Row | Variant | area with substrate CNLYFQS | area with substrate DNLYFQS | area with substrate HNLYFQS | area with substrate INLYFQS | area with substrate LNLYFQS | area with substrate MNLYFQS | area with substrate PNLYFQS | area with substrate RNLYFQS | area with substrate TNLYFQS | area with substrate WNLYFQS | area with substrate YNLYFQS | area with substrate SNLYFQS | area with substrate FNLYFQS | area with substrate GNLYFQS | area with substrate KNLYFQS | area with substrate NNLYFQS | area with substrate VNLYFQS | area with substrate QNLYFQS
1 | K98W | 0.0682 | 0.072 | 0.0601 | 0.064 | 0.06 | 0.0717 | 0.0691 | 0.0526 | 0.049 | 0.076 | 0.0606 |  |  |  |  |  |  | 
2 | M88T | 0.0524 | 0.006 | 0.0659 | 0.0604 |  |  |  |  | 0.0658 | 0.0659 |  | 0.0746 |  |  |  |  |  | 
3 | M88V | 0.0851 | 0.135 | 0.0604 | 0.0536 |  |  |  |  |  | 0.0562 | 0.0585 | 0.0575 | 0.0569 | 0.0665 | 0.0654 | 0.0751 | 0.0747 | 
4 | M88F | 0.0501 |  |  |  |  | 0.0696 | 0.0549 |  | 0.0386 | 0.0709 |  |  |  |  |  | 0.024 |  | 
5 | M88N | 0.0551 | 0.0536 | 0.0452 |  | 0.04 |  | 0.0612 |  | 0.0495 | 0.04 | 0.0526 | 0.0372 |  | 0.062 | 0.0499 | 0.0509 | 0.0548 | 
6 | T72E | 0.0696 |  |  |  |  |  | 0.0251 |  | 0.072 | 0.0474 |  | 0.0601 | 0.0558 |  | 0.0669 |  |  | 
7 | T72K | 0.0629 | 0.066 | 0.0568 | 0.0604 | 0.068 | 0.068 |  |  | 0.0613 | 0.0665 | 0.0609 | 0.0629 | 0.06 | 0.0736 | 0.0579 | 0.083 | 0.0562 | 
8 | T72Q | 0.077 | 0.0766 | 0.0629 | 0.0656 | 0.0763 | 0.078 | 0.0526 |  | 0.0653 | 0.0641 | 0.0953 | 0.0659 |  | 0.0773 |  | 0.0567 | 0.0676 | 
9 | L77F | 0.0528 | 0.0568 | 0.0601 | 0.058 | 0.0505 |  | 0.0448 |  | 0.0521 | 0.0532 | 0.0677 | 0.0535 | 0.062 | 0.0504 | 0.0589 | 0.05 | 0.0559 | 0.0634
10 | R102I | 0.0472 | 0.0512 | 0.0427 | 0.0504 | 0.0469 | 0.0452 |  | 0.0511 | 0.0449 | 0.0516 | 0.0455 | 0.0514 | 0.0444 | 0.0465 | 0.0414 | 0.0528 |  | 0.0572
11 | R102G | 0.0614 | 0.0363 | 0.0478 | 0.0497 | 0.0293 | 0.0528 | 0.0557 |  | 0.0443 | 0.0475 | 0.0543 | 0.0482 |  | 0.0501 |  | 0.0454 |  | 
12 | P104H | 0.0668 | 0.0621 | 0.047 | 0.046 |  | 0.0597 | 0.0637 |  | 0.0694 | 0.0491 | 0.0398 | 0.0343 | 0.0481 | 0.0458 | 0.0568 |  | 0.0448 | 
13 | P104A | 0.0615 |  | 0.059 | 0.0752 | 0.0694 |  |  |  | 0.0894 | 0.0689 |  |  | 0.0613 |  | 0.0664 |  |  | 
14 | P104K | 0.0349 |  |  |  | 0.0549 |  |  |  |  |  |  |  | 0.02 |  | 0.05 |  |  | 0.0592
15 | P104C | 0.0669 | 0.077 | 0.0681 | 0.0666 | 0.0539 | 0.0312 | 0.0584 |  | 0.0606 | 0.0601 | 0.0737 | 0.0671 | 0.0555 | 0.0869 | 0.0731 | 0.0604 | 0.0636 | 
16 | P104N | 0.0467 | 0.0491 | 0.0456 |  |  |  | 0.0504 |  | 0.0465 | 0.0372 | 0.0641 |  |  |  | 0.0478 |  | 0.0412 | 0.0328
17 | L73V | 0.0494 | 0.0799 | 0.068 |  | 0.0588 | 0.101 | 0.0718 |  | 0.0632 | 0.0732 | 0.0501 |  | 0.0609 |  | 0.0594 |  | 0.0661 | 
18 | P96C | 0.0758 |  | 0.0596 |  | 0.0948 |  |  |  |  | 0.0654 | 0.0714 |  | 0.0655 |  | 0.0789 | 0.0682 |  | 
19 | P96A | 0.0647 | 0.0584 |  | 0.0797 |  | 0.0879 | 0.0759 | 0.0655 | 0.0722 | 0.0903 |  | 0.0683 | 0.0603 |  | 0.0759 |  |  | 
20 | P96H | 0.0694 | 0.0519 | 0.0834 |  | 0.0627 | 0.069 | 0.0818 |  | 0.0783 | 0.0606 | 0.0635 |  | 0.0465 |  | 0.0717 |  | 0.0651 | 0.0702
21 | P96E | 0.0725 | 0.0776 | 0.0728 | 0.0587 | 0.0657 |  | 0.071 |  | 0.0784 | 0.051 | 0.0523 | 0.0628 | 0.052 | 0.0654 | 0.065 | 0.0653 |  | 
22 | P96R | 0.0757 |  |  |  | 0.0378 | 0.0648 |  |  |  | 0.0631 |  | 0.062 |  |  |  | 0.0704 | 0.111 | 0.0666
23 | H76C | 0.0734 | 0.0883 | 0.0672 | 0.0803 | 0.0579 |  | 0.0809 |  | 0.0656 | 0.058 |  | 0.0689 | 0.0645 | 0.0745 | 0.0738 | 0.065 |  | 
24 | G80W | 0.0698 | 0.0922 | 0.0578 | 0.0515 | 0.067 | 0.0639 | 0.0685 | 0.056 | 0.066 |  | 0.0611 | 0.0754 | 0.0507 |  | 0.0619 | 0.111 | 0.0616 | 
25 | G80E | 0.0675 | 0.0911 | 0.0606 | 0.0712 | 0.0846 | 0.0832 | 0.0777 |  | 0.0886 | 0.0637 |  | 0.0687 | 0.0728 | 0.0797 |  | 0.0569 |  | 0.0968
26 | G80M | 0.0678 | 0.091 | 0.0597 | 0.0601 |  | 0.062 | 0.0556 | 0.0584 | 0.057 | 0.0502 | 0.0629 | 0.0633 |  | 0.0697 | 0.0555 |  |  | 
27 | G80I | 0.0734 |  | 0.0649 | 0.0652 | 0.0587 | 0.0527 | 0.0615 |  | 0.0569 | 0.0648 | 0.0595 | 0.054 |  |  | 0.0643 | 0.0355 | 0.0581 | 
28 | G80V | 0.0651 |  | 0.0694 |  | 0.0684 |  | 0.0628 |  | 0.0883 | 0.0598 | 0.0618 | 0.0633 | 0.0499 |  | 0.0594 | 0.0578 | 0.0659 | 
29 | G80Q | 0.0721 | 0.0773 | 0.0722 | 0.0663 | 0.0578 | 0.064 |  | 0.0658 | 0.0623 | 0.062 | 0.0615 | 0.0711 | 0.0611 | 0.0697 | 0.057 |  | 0.0717 | 0.0673
